Measurements from US20260092099A1 (SPIN THERAPEUTICS, published 2026).

T1: human neutrophil elastase (human, UniProt P08246 30-247, limits assumed)
T1 sequence (looked up): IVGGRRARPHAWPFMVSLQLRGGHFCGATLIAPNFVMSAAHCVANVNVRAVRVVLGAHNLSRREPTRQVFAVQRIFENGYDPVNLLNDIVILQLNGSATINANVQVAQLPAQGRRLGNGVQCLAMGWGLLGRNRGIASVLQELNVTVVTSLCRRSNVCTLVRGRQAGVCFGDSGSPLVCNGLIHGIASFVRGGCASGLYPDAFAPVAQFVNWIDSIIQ


These binders were tested against T1, human neutrophil elastase (assay: cell-based or functional assay).

Row | Binder | IC50 (nM), neutrophil elastase inhibitory assay [nM]
1 | AAT-albumin fusion, base C232S, M351V, M358L with K335A/S283C/P361C (other) EDPQGDAAQKTDTSHHDQDHPTFNKITPNLAEFAFSLYRQLAHQSNSTNIFFSPVSIATAFAMLSLGTKADTHDEILEGLNFNLTEIPEAQIHEGFQELLRTLNQPDSQLQLTTGNGLFLSEGLKLVDKFLEDVKKLYHSEAFTVNFGDTEEAKKQINDYVEKGTQGKIVDLVKELDRDTVFALVNYIFFKGKWERPFEVKDTEEEDFHVDQVTTVKVPMMKRLGMFNIQHSKKLSSWVLLMKYLGNATAIFFLPDEGKLQHLENELTHDIITKFLENEDRRCASLHLPKLSITGTYDLKSVLGQLGITKVFSNGADLSGVTEEAPLKLSKAVHAAVLTIDEKGTEAAGAVFLEAIPLSICPEVKFNKPFVFLMIEQNTKSPLFMGKVVNPTQKGGSGGSGGSGGSGG[skipping about 600 residues] | 8.55
2 | AAT-albumin fusion, base C232S, M351V, M358L with F51L/G117F (other) EDPQGDAAQKTDTSHHDQDHPTFNKITPNLAEFAFSLYRQLAHQSNSTNILFSPVSIATAFAMLSLGTKADTHDEILEGLNFNLTEIPEAQIHEGFQELLRTLNQPDSQLQLTTGNFLFLSEGLKLVDKFLEDVKKLYHSEAFTVNFGDTEEAKKQINDYVEKGTQGKIVDLVKELDRDTVFALVNYIFFKGKWERPFEVKDTEEEDFHVDQVTTVKVPMMKRLGMFNIQHSKKLSSWVLLMKYLGNATAIFFLPDEGKLQHLENELTHDIITKFLENEDRRSASLHLPKLSITGTYDLKSVLGQLGITKVFSNGADLSGVTEEAPLKLSKAVHKAVLTIDEKGTEAAGAVFLEAIPLSIPPEVKFNKPFVFLMIEQNTKSPLFMGKVVNPTQKGGSGGSGGSGGSGG[skipping about 600 residues] | 19
3 | AAT-albumin fusion, base C232S, M351V, M358L with G117F/K331F (other) EDPQGDAAQKTDTSHHDQDHPTFNKITPNLAEFAFSLYRQLAHQSNSTNIFFSPVSIATAFAMLSLGTKADTHDEILEGLNFNLTEIPEAQIHEGFQELLRTLNQPDSQLQLTTGNFLFLSEGLKLVDKFLEDVKKLYHSEAFTVNFGDTEEAKKQINDYVEKGTQGKIVDLVKELDRDTVFALVNYIFFKGKWERPFEVKDTEEEDFHVDQVTTVKVPMMKRLGMFNIQHSKKLSSWVLLMKYLGNATAIFFLPDEGKLQHLENELTHDIITKFLENEDRRSASLHLPKLSITGTYDLKSVLGQLGITKVFSNGADLSGVTEEAPLKLSFAVHKAVLTIDEKGTEAAGAVFLEAIPLSIPPEVKFNKPFVFLMIEQNTKSPLFMGKVVNPTQKGGSGGSGGSGGSGG[skipping about 600 residues] | 8.94
4 | AAT-albumin fusion, base C232S, M351V, M358L with F51L/K331F (other) EDPQGDAAQKTDTSHHDQDHPTFNKITPNLAEFAFSLYRQLAHQSNSTNILFSPVSIATAFAMLSLGTKADTHDEILEGLNFNLTEIPEAQIHEGFQELLRTLNQPDSQLQLTTGNGLFLSEGLKLVDKFLEDVKKLYHSEAFTVNFGDTEEAKKQINDYVEKGTQGKIVDLVKELDRDTVFALVNYIFFKGKWERPFEVKDTEEEDFHVDQVTTVKVPMMKRLGMFNIQHSKKLSSWVLLMKYLGNATAIFFLPDEGKLQHLENELTHDIITKFLENEDRRSASLHLPKLSITGTYDLKSVLGQLGITKVFSNGADLSGVTEEAPLKLSFAVHKAVLTIDEKGTEAAGAVFLEAIPLSIPPEVKFNKPFVFLMIEQNTKSPLFMGKVVNPTQKGGSGGSGGSGGSGG[skipping about 600 residues] | 9.18
5 | AAT-albumin fusion, base C232S, M351V, M358L with F51L/S283C/P361C (other) EDPQGDAAQKTDTSHHDQDHPTFNKITPNLAEFAFSLYRQLAHQSNSTNILFSPVSIATAFAMLSLGTKADTHDEILEGLNFNLTEIPEAQIHEGFQELLRTLNQPDSQLQLTTGNGLFLSEGLKLVDKFLEDVKKLYHSEAFTVNFGDTEEAKKQINDYVEKGTQGKIVDLVKELDRDTVFALVNYIFFKGKWERPFEVKDTEEEDFHVDQVTTVKVPMMKRLGMFNIQHSKKLSSWVLLMKYLGNATAIFFLPDEGKLQHLENELTHDIITKFLENEDRRCASLHLPKLSITGTYDLKSVLGQLGITKVFSNGADLSGVTEEAPLKLSKAVHKAVLTIDEKGTEAAGAVFLEAIPLSICPEVKFNKPFVFLMIEQNTKSPLFMGKVVNPTQKGGSGGSGGSGGSGG[skipping about 600 residues] | 16
6 | AAT-albumin fusion, base C232S, M351V, M358L with F51L/K335A (other) EDPQGDAAQKTDTSHHDQDHPTFNKITPNLAEFAFSLYRQLAHQSNSTNILFSPVSIATAFAMLSLGTKADTHDEILEGLNFNLTEIPEAQIHEGFQELLRTLNQPDSQLQLTTGNGLFLSEGLKLVDKFLEDVKKLYHSEAFTVNFGDTEEAKKQINDYVEKGTQGKIVDLVKELDRDTVFALVNYIFFKGKWERPFEVKDTEEEDFHVDQVTTVKVPMMKRLGMFNIQHSKKLSSWVLLMKYLGNATAIFFLPDEGKLQHLENELTHDIITKFLENEDRRSASLHLPKLSITGTYDLKSVLGQLGITKVFSNGADLSGVTEEAPLKLSKAVHAAVLTIDEKGTEAAGAVFLEAIPLSIPPEVKFNKPFVFLMIEQNTKSPLFMGKVVNPTQKGGSGGSGGSGGSGG[skipping about 600 residues] | 10.7

More lines, now with the values ahead:

Row | IC50 (nM), neutrophil elastase inhibitory assay [nM] | Binder
7 | 15.8 | AAT-albumin fusion, base C232S, M351V, M358L with K335A/K168C/F189C (other) EDPQGDAAQKTDTSHHDQDHPTFNKITPNLAEFAFSLYRQLAHQSNSTNIFFSPVSIATAFAMLSLGTKADTHDEILEGLNFNLTEIPEAQIHEGFQELLRTLNQPDSQLQLTTGNGLFLSEGLKLVDKFLEDVKKLYHSEAFTVNFGDTEEAKKQINDYVEKGTQGCIVDLVKELDRDTVFALVNYICFKGKWERPFEVKDTEEEDFHVDQVTTVKVPMMKRLGMFNIQHSKKLSSWVLLMKYLGNATAIFFLPDEGKLQHLENELTHDIITKFLENEDRRSASLHLPKLSITGTYDLKSVLGQLGITKVFSNGADLSGVTEEAPLKLSKAVHAAVLTIDEKGTEAAGAVFLEAIPLSIPPEVKFNKPFVFLMIEQNTKSPLFMGKVVNPTQKGGSGGSGGSGGSGG[skipping about 600 residues]
8 | 9.3 | AAT-albumin fusion, base C232S, M351V, M358L with K331F/K335A (other) EDPQGDAAQKTDTSHHDQDHPTFNKITPNLAEFAFSLYRQLAHQSNSTNIFFSPVSIATAFAMLSLGTKADTHDEILEGLNFNLTEIPEAQIHEGFQELLRTLNQPDSQLQLTTGNGLFLSEGLKLVDKFLEDVKKLYHSEAFTVNFGDTEEAKKQINDYVEKGTQGKIVDLVKELDRDTVFALVNYIFFKGKWERPFEVKDTEEEDFHVDQVTTVKVPMMKRLGMFNIQHSKKLSSWVLLMKYLGNATAIFFLPDEGKLQHLENELTHDIITKFLENEDRRSASLHLPKLSITGTYDLKSVLGQLGITKVFSNGADLSGVTEEAPLKLSFAVHAAVLTIDEKGTEAAGAVFLEAIPLSIPPEVKFNKPFVFLMIEQNTKSPLFMGKVVNPTQKGGSGGSGGSGGSGG[skipping about 600 residues]
9 | 14.3 | AAT-albumin fusion, base C232S, M351V, M358L with K331F/S283C/P361C (other) EDPQGDAAQKTDTSHHDQDHPTFNKITPNLAEFAFSLYRQLAHQSNSTNIFFSPVSIATAFAMLSLGTKADTHDEILEGLNFNLTEIPEAQIHEGFQELLRTLNQPDSQLQLTTGNGLFLSEGLKLVDKFLEDVKKLYHSEAFTVNFGDTEEAKKQINDYVEKGTQGKIVDLVKELDRDTVFALVNYIFFKGKWERPFEVKDTEEEDFHVDQVTTVKVPMMKRLGMFNIQHSKKLSSWVLLMKYLGNATAIFFLPDEGKLQHLENELTHDIITKFLENEDRRCASLHLPKLSITGTYDLKSVLGQLGITKVFSNGADLSGVTEEAPLKLSFAVHKAVLTIDEKGTEAAGAVFLEAIPLSICPEVKFNKPFVFLMIEQNTKSPLFMGKVVNPTQKGGSGGSGGSGGSGG[skipping about 600 residues]
10 | 10.4 | AAT-albumin fusion, base C232S, M351V, M358L with G117F (other) EDPQGDAAQKTDTSHHDQDHPTFNKITPNLAEFAFSLYRQLAHQSNSTNIFFSPVSIATAFAMLSLGTKADTHDEILEGLNFNLTEIPEAQIHEGFQELLRTLNQPDSQLQLTTGNFLFLSEGLKLVDKFLEDVKKLYHSEAFTVNFGDTEEAKKQINDYVEKGTQGKIVDLVKELDRDTVFALVNYIFFKGKWERPFEVKDTEEEDFHVDQVTTVKVPMMKRLGMFNIQHSKKLSSWVLLMKYLGNATAIFFLPDEGKLQHLENELTHDIITKFLENEDRRSASLHLPKLSITGTYDLKSVLGQLGITKVFSNGADLSGVTEEAPLKLSKAVHKAVLTIDEKGTEAAGAVFLEAIPLSIPPEVKFNKPFVFLMIEQNTKSPLFMGKVVNPTQKGGSGGSGGSGGSGG[skipping about 600 residues]
11 | 13.6 | AAT-albumin fusion, base C232S, M351V, M358L with F51L (other) EDPQGDAAQKTDTSHHDQDHPTFNKITPNLAEFAFSLYRQLAHQSNSTNILFSPVSIATAFAMLSLGTKADTHDEILEGLNFNLTEIPEAQIHEGFQELLRTLNQPDSQLQLTTGNGLFLSEGLKLVDKFLEDVKKLYHSEAFTVNFGDTEEAKKQINDYVEKGTQGKIVDLVKELDRDTVFALVNYIFFKGKWERPFEVKDTEEEDFHVDQVTTVKVPMMKRLGMFNIQHSKKLSSWVLLMKYLGNATAIFFLPDEGKLQHLENELTHDIITKFLENEDRRSASLHLPKLSITGTYDLKSVLGQLGITKVFSNGADLSGVTEEAPLKLSKAVHKAVLTIDEKGTEAAGAVFLEAIPLSIPPEVKFNKPFVFLMIEQNTKSPLFMGKVVNPTQKGGSGGSGGSGGSGG[skipping about 600 residues]
12 | 8.58 | AAT-albumin fusion, base C232S, M351V, M358L with G117F/K335A (other) EDPQGDAAQKTDTSHHDQDHPTFNKITPNLAEFAFSLYRQLAHQSNSTNIFFSPVSIATAFAMLSLGTKADTHDEILEGLNFNLTEIPEAQIHEGFQELLRTLNQPDSQLQLTTGNFLFLSEGLKLVDKFLEDVKKLYHSEAFTVNFGDTEEAKKQINDYVEKGTQGKIVDLVKELDRDTVFALVNYIFFKGKWERPFEVKDTEEEDFHVDQVTTVKVPMMKRLGMFNIQHSKKLSSWVLLMKYLGNATAIFFLPDEGKLQHLENELTHDIITKFLENEDRRSASLHLPKLSITGTYDLKSVLGQLGITKVFSNGADLSGVTEEAPLKLSKAVHAAVLTIDEKGTEAAGAVFLEAIPLSIPPEVKFNKPFVFLMIEQNTKSPLFMGKVVNPTQKGGSGGSGGSGGSGG[skipping about 600 residues]
